Laboratory results as given in article PMC4336329 (PLoS ONE, 2015).
Among all 310,000 compounds or so, about 2,200 (0.71%) showed an effect of 50% or more. Effects have a minus sign here. Some of the results follow.

Molecular target: human ether-à-go-go-related gene (hERG) potassium channel (human, UniProt Q12809)
Experiment: primary screen, population patch clamp on CHO cells stably expressing hERG

Chain of human ether-à-go-go-related gene (hERG) potassium channel (Q12809 whole entry, looked up): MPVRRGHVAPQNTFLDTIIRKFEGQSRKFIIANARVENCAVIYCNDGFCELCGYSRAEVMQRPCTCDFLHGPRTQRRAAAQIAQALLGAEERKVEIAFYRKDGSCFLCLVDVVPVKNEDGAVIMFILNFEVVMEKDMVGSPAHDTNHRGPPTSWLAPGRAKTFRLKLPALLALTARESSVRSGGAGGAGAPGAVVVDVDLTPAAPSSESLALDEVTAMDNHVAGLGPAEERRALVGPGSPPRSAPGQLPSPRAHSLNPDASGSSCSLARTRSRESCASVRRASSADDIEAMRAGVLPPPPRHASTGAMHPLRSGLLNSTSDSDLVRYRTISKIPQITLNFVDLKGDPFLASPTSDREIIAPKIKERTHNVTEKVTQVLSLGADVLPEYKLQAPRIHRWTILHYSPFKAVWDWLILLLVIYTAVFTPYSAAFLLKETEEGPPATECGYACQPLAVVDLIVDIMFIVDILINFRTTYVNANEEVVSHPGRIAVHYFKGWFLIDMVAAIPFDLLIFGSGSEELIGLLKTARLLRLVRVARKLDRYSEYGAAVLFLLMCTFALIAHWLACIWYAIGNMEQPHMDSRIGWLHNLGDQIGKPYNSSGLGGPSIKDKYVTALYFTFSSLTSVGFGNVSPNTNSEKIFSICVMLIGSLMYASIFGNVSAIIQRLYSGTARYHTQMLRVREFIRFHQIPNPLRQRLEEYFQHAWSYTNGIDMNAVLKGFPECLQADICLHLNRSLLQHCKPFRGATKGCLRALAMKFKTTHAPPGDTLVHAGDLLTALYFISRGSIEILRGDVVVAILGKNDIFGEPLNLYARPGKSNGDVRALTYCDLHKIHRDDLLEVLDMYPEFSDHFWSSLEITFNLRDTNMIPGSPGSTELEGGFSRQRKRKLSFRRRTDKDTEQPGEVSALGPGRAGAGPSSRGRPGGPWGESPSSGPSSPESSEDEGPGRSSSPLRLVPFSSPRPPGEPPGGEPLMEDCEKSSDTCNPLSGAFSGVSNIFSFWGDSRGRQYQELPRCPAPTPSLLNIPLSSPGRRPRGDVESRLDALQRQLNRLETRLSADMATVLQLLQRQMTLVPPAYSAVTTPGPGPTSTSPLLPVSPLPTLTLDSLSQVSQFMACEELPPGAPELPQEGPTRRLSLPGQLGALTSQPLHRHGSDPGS

Question: Which “hERG current change (%, negative = inhibition) at 1uM” value does the source give for `COc1ccc(OC)c(NC(=O)CCN2CCCCCC2)c1.Cl` here?
Answer: 8.93%

Question: With `CCCN1C(=O)c2ccc(C(=O)NC3CCCCC3)cc2C1=O` as the compound, how does the “hERG current change (%, negative = inhibition) at 1uM” value read?
Answer: 10.7%

Question: With `CCOc1ccc(NC(=O)c2ccco2)cc1` as the compound, how does the “hERG current change (%, negative = inhibition) at 1uM” value read?
Answer: 5.89%

Question: For `O=C1NN(c2cccc(Br)c2)C(=O)/C1=C\c1ccc(O)cc1`, which “hERG current change (%, negative = inhibition) at 1uM” value is on record?
Answer: 6.83%

Question: Which “hERG current change (%, negative = inhibition) at 1uM” value does the source give for `O=C(CCNS(=O)(=O)c1ccccc1)N1CCCC1` here?
Answer: 11.5%

Question: How did the “hERG current change (%, negative = inhibition) at 1uM” value turn out when `O=C(O)Cn1cc(C(=O)C(F)(F)F)c2ccccc21` was run?
Answer: 19.6%

Question: With `COc1ccc(-n2nnnc2SCC(=O)NCc2ccco2)cc1OC` as the compound, how does the “hERG current change (%, negative = inhibition) at 1uM” value read?
Answer: 1.13%

Question: With `CCN(CC)S(=O)(=O)c1ccc(OC)c(NC(=O)c2ccc(OC)c([N+](=O)[O-])c2)c1` as the compound, how does the “hERG current change (%, negative = inhibition) at 1uM” value read?
Answer: 3%

Question: For `CCOc1c(Cl)cc(/C=C/C(=O)N(CC)CC(=O)Nc2ccc(NC(C)=O)cc2)cc1OC`, which “hERG current change (%, negative = inhibition) at 1uM” value is on record?
Answer: 3.18%

Question: With `O=C1C(Cl)=C(N2CCCCC2)C(=O)N1c1ccccc1Cl` as the compound, how does the “hERG current change (%, negative = inhibition) at 1uM” value read?
Answer: 10.1%

Question: Which “hERG current change (%, negative = inhibition) at 1uM” value does the source give for `O=C(COC(=O)c1ccccc1Nc1ccc(SC(F)F)cc1)NCc1ccco1` here?
Answer: 15.3%

Question: How did the “hERG current change (%, negative = inhibition) at 1uM” value turn out when `NC(=O)c1ccccc1OCC(=O)Nc1ccc2c(c1)CCC2` was run?
Answer: 8.55%

Question: Which “hERG current change (%, negative = inhibition) at 1uM” value does the source give for `COc1ccc2c(c1)CCCN2S(=O)(=O)c1ccc(Cl)cc1` here?
Answer: 12.4%

Question: For `O=C1CN(C(=O)OCc2ccccc2)c2ccccc2N1`, which “hERG current change (%, negative = inhibition) at 1uM” value is on record?
Answer: 10.1%

Question: For `COC(=O)C(C)C1Sc2ccccc2NC1=O` (stereo not drawn), which “hERG current change (%, negative = inhibition) at 1uM” value is on record?
Answer: 5.04%

Question: `COc1ccccc1OCCC(=O)Nc1nc(C)cs1` was tested. Which “hERG current change (%, negative = inhibition) at 1uM” value did it give?
Answer: 7.48%

Question: With `COc1ccc(S(=O)(=O)CCC(=O)N2CC(=O)N(CCc3ccccc3)C(=O)C2)cc1` as the compound, how does the “hERG current change (%, negative = inhibition) at 1uM” value read?
Answer: 5.42%

Question: With `CCC(=NCCc1ccc(OC)c(OC)c1)C1=C(O)CC(C)(C)CC1=O` as the compound, how does the “hERG current change (%, negative = inhibition) at 1uM” value read?
Answer: 24.6%

Question: `O=C(COC(=O)C1CCCCC1)Nc1ccccc1OC(F)F` was tested. Which “hERG current change (%, negative = inhibition) at 1uM” value did it give?
Answer: 12.3%

Question: How did the “hERG current change (%, negative = inhibition) at 1uM” value turn out when `O=C(Nc1ccc2sccc2c1)c1cccc(N2C(=O)CCC2=O)c1` was run?
Answer: 7.56%

Question: How did the “hERG current change (%, negative = inhibition) at 1uM” value turn out when `Cc1ccc(C(=O)Nc2nc(=O)n(C(=O)CC(C)C)s2)cc1` was run?
Answer: 23.8%

Question: Which “hERG current change (%, negative = inhibition) at 1uM” value does the source give for `Cc1ccc(C(C)C)c(OCC(=O)NNC(=O)Nc2ccccc2)c1` here?
Answer: 9.86%

Question: With `CCOc1ccc(NC(=O)CN(C)C(=O)C2=COCCO2)cc1OCC` as the compound, how does the “hERG current change (%, negative = inhibition) at 1uM” value read?
Answer: 2.56%

Question: For `COc1cc(/C=C/C(=O)O)cc(S(=O)(=O)N(C)CCO)c1OC`, which “hERG current change (%, negative = inhibition) at 1uM” value is on record?
Answer: -4.59%

Question: Which “hERG current change (%, negative = inhibition) at 1uM” value does the source give for `CCOC(=O)C(NC(=O)c1ccccc1Cl)(Nc1ccc(C)c(C)c1)C(F)(F)F` (stereo not drawn) here?
Answer: 13%

Question: How did the “hERG current change (%, negative = inhibition) at 1uM” value turn out when `COc1ccc(N(C)S(=O)(=O)c2ccc3c(c2)CCC(=O)N3)cc1` was run?
Answer: 0.558%

Question: Which “hERG current change (%, negative = inhibition) at 1uM” value does the source give for `COC(=O)c1cccc(OC(N)=O)c1` here?
Answer: 6.84%

Question: `CCCc1nnc(NC(=O)C(CC)OC(=O)c2cc(C)nc3ccccc23)s1` (stereo not drawn) was tested. Which “hERG current change (%, negative = inhibition) at 1uM” value did it give?
Answer: 1.69%

Question: With `COCCNC(=O)CCCCCNS(=O)(=O)c1ccc(C)cc1` as the compound, how does the “hERG current change (%, negative = inhibition) at 1uM” value read?
Answer: 5.2%

Question: `Cc1cc(C)cc(OCC(=O)Nc2ccc(N3CCN(S(C)(=O)=O)CC3)cc2)c1` was tested. Which “hERG current change (%, negative = inhibition) at 1uM” value did it give?
Answer: 7%

Question: With `Cc1ccnc(NC(=O)COc2c(C)cc(C)cc2[N+](=O)[O-])c1` as the compound, how does the “hERG current change (%, negative = inhibition) at 1uM” value read?
Answer: 14.1%

Question: `COc1ccc(C2c3[nH]c4ccccc4c3C[C@H]3C(=O)N(CC(C)C)CC(=O)N23)c(OC)c1` (stereo partly drawn) was tested. Which “hERG current change (%, negative = inhibition) at 1uM” value did it give?
Answer: 7.71%

Question: How did the “hERG current change (%, negative = inhibition) at 1uM” value turn out when `Cc1ccc(C(=O)Nn2cnc3scc(-c4cccs4)c3c2=O)c(O)c1` was run?
Answer: 11.3%

Question: How did the “hERG current change (%, negative = inhibition) at 1uM” value turn out when `Cc1ccc(C(=O)CN2C(=O)NC3(CCCCCC3)C2=O)c(C)c1` was run?
Answer: 12.2%

Question: How did the “hERG current change (%, negative = inhibition) at 1uM” value turn out when `CN(Cc1cnn(-c2ccccc2)c1)C(=O)C1CCC(=O)N(C2CC2)C1` (stereo not drawn) was run?
Answer: 4.92%

Question: How did the “hERG current change (%, negative = inhibition) at 1uM” value turn out when `COc1cc2ccccc2cc1C(=O)Nc1ccc(Br)cn1` was run?
Answer: 16.7%

Question: Which “hERG current change (%, negative = inhibition) at 1uM” value does the source give for `Clc1cccc(/C=N/Nc2ncnc3ccccc23)c1` here?
Answer: 0.2%

Question: Which “hERG current change (%, negative = inhibition) at 1uM” value does the source give for `CN(CC(=O)Nc1ccccc1Cl)CC(=O)Nc1ccccc1[N+](=O)[O-]` here?
Answer: -4.33%

Question: For `CC(C1CC2CCC1C2)n1c(COc2ccccc2F)nnc1SCC(N)=O` (stereo not drawn), which “hERG current change (%, negative = inhibition) at 1uM” value is on record?
Answer: -1.9%

Question: How did the “hERG current change (%, negative = inhibition) at 1uM” value turn out when `CC(=O)c1c(C)[nH]c2ccccc2c1=O` was run?
Answer: 2.73%

Question: How did the “hERG current change (%, negative = inhibition) at 1uM” value turn out when `CCCCNC(=O)c1ccc(S(=O)(=O)c2ccc(Cl)cc2)c(NC(C)=O)c1` was run?
Answer: 1.98%

Question: For `COc1ccc(CN2CCN(Cc3c[nH]c4ccccc34)CC2CCO)c(F)c1` (stereo not drawn), which “hERG current change (%, negative = inhibition) at 1uM” value is on record?
Answer: -5.04%

Question: Which “hERG current change (%, negative = inhibition) at 1uM” value does the source give for `COc1cc(C(=O)OCc2cc3ccccc3[nH]c2=O)cc(OC)c1OC` here?
Answer: 4.2%

Question: How did the “hERG current change (%, negative = inhibition) at 1uM” value turn out when `CCCCOC(=O)Cn1c(=O)n(CC(=O)OCCCC)c2cc(C)ccc21` was run?
Answer: -19%

Question: With `COC(=O)C(O)(c1ccc(NC(=O)c2cccs2)cc1)C(F)(F)F` (stereo not drawn) as the compound, how does the “hERG current change (%, negative = inhibition) at 1uM” value read?
Answer: 10.7%

Question: `O=C(NCCn1c(C(F)(F)F)nc2cc(C(F)(F)F)ccc21)[C@H]1CCCN1c1nc(CN2CCCCC2)cs1` was tested. Which “hERG current change (%, negative = inhibition) at 1uM” value did it give?
Answer: 7.28%

Question: How did the “hERG current change (%, negative = inhibition) at 1uM” value turn out when `CCOC(=O)C1(CC2CC2)CCN(C(=O)c2cc(OC)nc3ccccc23)CC1` was run?
Answer: 8.24%

Question: With `CCOC(=O)c1sc(-c2cccc(C(F)(F)F)c2)nc1O` as the compound, how does the “hERG current change (%, negative = inhibition) at 1uM” value read?
Answer: 11.8%

Question: Which “hERG current change (%, negative = inhibition) at 1uM” value does the source give for `COc1ccc(NC(=S)N2CCC(c3nc4ccc(Cl)cc4[nH]3)CC2)c(OC)c1` here?
Answer: 1.15%

Question: How did the “hERG current change (%, negative = inhibition) at 1uM” value turn out when `O=C(O)c1cc(-c2ccc(O)cc2)on1` was run?
Answer: 12.4%

Question: `CCOc1ccc(CCNC(=O)COC(=O)c2ccc(OC(C)C)cc2)cc1OCC` was tested. Which “hERG current change (%, negative = inhibition) at 1uM” value did it give?
Answer: 2.25%

Question: For `CCOc1ccc(CCNC(=O)C2=C(C)C(=O)OC23CCC(C)CC3)cc1` (stereo not drawn), which “hERG current change (%, negative = inhibition) at 1uM” value is on record?
Answer: 0.27%

Question: `CCOc1ccc(C(O)C(CN2CCOCC2)c2ccccc2)cc1.Cl` (stereo not drawn) was tested. Which “hERG current change (%, negative = inhibition) at 1uM” value did it give?
Answer: 5.12%

Question: Which “hERG current change (%, negative = inhibition) at 1uM” value does the source give for `CC(C)(C)c1ccc(C(=O)N2CCC(=O)N(C(CO)Cc3ccccc3)CC2)cc1` (stereo not drawn) here?
Answer: 0.432%

Question: Which “hERG current change (%, negative = inhibition) at 1uM” value does the source give for `C=C(C)C(=O)N1CC2(CC(c3cccc(NC(=O)/C(C)=C\C)c3)=NO2)C[C@H]1C(N)=O` (stereo partly drawn) here?
Answer: 9%

Question: `C/C=C(\C)C(=O)OC1c2c(ccc3ccc(=O)oc23)OC(C)(C)C1OC(C)=O` (stereo not drawn) was tested. Which “hERG current change (%, negative = inhibition) at 1uM” value did it give?
Answer: -54.7%

Question: Which “hERG current change (%, negative = inhibition) at 1uM” value does the source give for `C=CCc1c(OC)ccc2c1c(S(=O)(=O)c1ccc(C)cc1)cn2COC` here?
Answer: 14.6%
